# Reference: the supplement of paper PMC4604168 (melanoma cell lines)
# The list shows a part of the results. Most values come without repeats; read them as rough.
# System: SkMel2
# Assay: cell count relative to DMSO control; melanoma cells; higher = more viable cells
# Settings: library dose: low library concentration; 72 h; first compound 0.4 µM
# 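Also: cell number obtained by counting DAPI-stained nuclei in high-throughput microscope images with image analysis software, screen run in 1,536-well plates.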
row,SMILES,cell count [%]
1,Cn1sc(=O)n(Cc2ccccc2)c1=O + COC(=O)c1sccc1S(=O)(=O)Nc1ccc(Nc2ccccc2)cc1OC [GSK0660] (partner dose 1 µM),98.8
2,Cn1sc(=O)n(Cc2ccccc2)c1=O + CC1(C)NC(=O)N(c2ccc([N+](=O)[O-])c(C(F)(F)F)c2)C1=O [nilutamide] (partner dose 1 µM),102
3,Cn1sc(=O)n(Cc2ccccc2)c1=O + COc1ccc(COc2ccc(Cc3cnc(N)nc3N)cc2OC)cc1 [GW2580] (partner dose 1 µM),103
4,C[C@@H](N)c1ccc(C(=O)Nc2ccnc3[nH]ccc23)cc1 + CCCCCCCCCCCC1=C(O)C(=O)C=C(O)C1=O [Embelin] (partner dose 1.2 µM),95.3
5,CCCCCCCCCCCCCCCCCCOP(=O)([O-])OC1CC[N+](C)(C)CC1 [Perifosine] + O=C(O)c1ccc(-c2c[nH]c3ncc(-c4ccccc4)cc23)cc1C1CCCC1 [GSK650394] (partner dose 0.16 µM),93.5
6,C[C@@H](N)c1ccc(C(=O)Nc2ccnc3[nH]ccc23)cc1 + CO[C@@H]1[C@H](N(C)C(=O)c2ccccc2)C[C@H]2O[C@]1(C)n1c3ccccc3c3c4c(c5c6ccccc6n2c5c31)C(=O)NC4 [Midostaurin] (partner dose 0.08 µM),97.8
7,Cn1sc(=O)n(Cc2ccccc2)c1=O + CN(NC(=O)CC(=O)NN(C)C(=S)c1ccccc1)C(=S)c1ccccc1 [STA4783] (partner dose 0.006 µM),97.4
8,Cn1sc(=O)n(Cc2ccccc2)c1=O + Oc1cc(-c2nc(-c3ccccc3)[nH]c2-c2ccncc2)ccc1Cl [L779450] (partner dose 0.2 µM),95.7
9,CCCCCCCCCCCCCCCCCCOP(=O)([O-])OC1CC[N+](C)(C)CC1 [Perifosine] + Cc1cc([N+](=O)[O-])ccc1NS(=O)(=O)c1cc(Cl)ccc1Cl [FH535] (partner dose 1 µM),92.1
10,C[C@@H](N)c1ccc(C(=O)Nc2ccnc3[nH]ccc23)cc1 + O=C(O)C(=O)Nc1sc2c(c1C(=O)O)CCNC2 [TCS401] (partner dose 1.66667 µM),100
11,C[C@@H](N)c1ccc(C(=O)Nc2ccnc3[nH]ccc23)cc1 + COc1ccc(COc2ccc(Cc3cnc(N)nc3N)cc2OC)cc1 [GW2580] (partner dose 1 µM),92.3
12,CCCCCCCCCCCCCCCCCCOP(=O)([O-])OC1CC[N+](C)(C)CC1 [Perifosine] + OCCn1cc(-c2cnc3nnn(Cc4ccc5ncccc5c4)c3n2)cn1 [PF04217903] (partner dose 1 µM),85.4
13,C[C@@H](N)c1ccc(C(=O)Nc2ccnc3[nH]ccc23)cc1 + CN(C)S(=O)(=O)c1ccc2c(c1)/C(=C/c1cc3c([nH]1)CCCC3)C(=O)N2 [SU6656] (partner dose 0.4 µM),97.7
14,Cn1sc(=O)n(Cc2ccccc2)c1=O + Cc1cc([N+](=O)[O-])ccc1NS(=O)(=O)c1cc(Cl)ccc1Cl [FH535] (partner dose 1 µM),87.2
15,Cn1sc(=O)n(Cc2ccccc2)c1=O + CC(C)CCN1c2nc(Nc3cc(F)c(O)c(F)c3)ncc2N(C)C(=O)C1C [BID1870] (partner dose 0.2 µM),88.3
16,C[C@@H](N)c1ccc(C(=O)Nc2ccnc3[nH]ccc23)cc1 + c1cc(-c2cnn3cc(-c4ccc(OCCN5CCCCC5)cc4)cnc23)ccn1 [Dorsomorphin] (partner dose 0.4 µM),99.6
17,CCCCCCCCCCCCCCCCCCOP(=O)([O-])OC1CC[N+](C)(C)CC1 [Perifosine] + CC(C)(C)c1cnc(CSc2cnc(NC(=O)C3CCNCC3)s2)o1 [SNS-032] (partner dose 0.01 µM),93.8
18,C[C@@H](N)c1ccc(C(=O)Nc2ccnc3[nH]ccc23)cc1 + O=c1cc(-c2cccc3c2Sc2ccccc2S3)oc(N2CCOCC2)c1 [KU55933] (partner dose 1 µM),123
19,CCCCCCCCCCCCCCCCCCOP(=O)([O-])OC1CC[N+](C)(C)CC1 [Perifosine] + C[C@@H]1CCN(C(=O)CC#N)C[C@@H]1N(C)c1ncnc2[nH]ccc12 [CP690550] (partner dose 1 µM),101

# System: SkMel30
# Assay: as above
# Settings: library dose: low library concentration; 72 h; first compound 0.4 µM
row,SMILES,cell count [%]
1,Cn1sc(=O)n(Cc2ccccc2)c1=O + c1cc(-c2cnn3cc(-c4ccc(OCCN5CCCCC5)cc4)cnc23)ccn1 [Dorsomorphin] (partner dose 0.4 µM),100
2,C[C@@H](N)c1ccc(C(=O)Nc2ccnc3[nH]ccc23)cc1 + Oc1nc(-c2ccc(C(F)(F)F)cc2)nc2c1CSCC2 [XAV939] (partner dose 2 µM),117
3,CCCCCCCCCCCCCCCCCCOP(=O)([O-])OC1CC[N+](C)(C)CC1 [Perifosine] + Cn1cc(/C=C2\C(=O)Nc3cccnc32)c2ccccc21 [GW441756] (partner dose 0.4 µM),86.5
4,C[C@@H](N)c1ccc(C(=O)Nc2ccnc3[nH]ccc23)cc1 + CN(NC(=O)CC(=O)NN(C)C(=S)c1ccccc1)C(=S)c1ccccc1 [STA4783] (partner dose 0.006 µM),94.9
5,C[C@@H](N)c1ccc(C(=O)Nc2ccnc3[nH]ccc23)cc1 + COc1cc2ncnc(Nc3ccc(Oc4ccccc4)cc3)c2cc1OC [SrcI1] (partner dose 2 µM),104
6,Cn1sc(=O)n(Cc2ccccc2)c1=O + N#Cc1c(O)c2c(-c3ccc(-c4ccccc4O)cc3)csc2[nH]c1=O [A769662] (partner dose 2 µM),99.2
7,CCCCCCCCCCCCCCCCCCOP(=O)([O-])OC1CC[N+](C)(C)CC1 [Perifosine] + c1cc(-c2cnn3cc(-c4ccc(OCCN5CCCCC5)cc4)cnc23)ccn1 [Dorsomorphin] (partner dose 0.4 µM),114
8,Cn1sc(=O)n(Cc2ccccc2)c1=O + O=c1cc(-c2cccc3c2Sc2ccccc2S3)oc(N2CCOCC2)c1 [KU55933] (partner dose 1 µM),111
9,C[C@@H](N)c1ccc(C(=O)Nc2ccnc3[nH]ccc23)cc1 + COc1cc2c(Oc3ccc4[nH]c(C)cc4c3F)ncnc2cc1OCCCN1CCCC1 [cediranib] (partner dose 0.4 µM),110
10,C[C@@H](N)c1ccc(C(=O)Nc2ccnc3[nH]ccc23)cc1 + COc1ccc(-c2ccc3c(N4CCOCC4)nc(N4C[C@@H](C)O[C@@H](C)C4)nc3n2)cc1CO [KU0063794] (partner dose 0.02 µM),106
11,C[C@@H](N)c1ccc(C(=O)Nc2ccnc3[nH]ccc23)cc1 + COC(=O)c1sccc1S(=O)(=O)Nc1ccc(Nc2ccccc2)cc1OC [GSK0660] (partner dose 1 µM),107
12,C[C@@H](N)c1ccc(C(=O)Nc2ccnc3[nH]ccc23)cc1 + COc1cc(Nc2ncc(F)c(Nc3ccc4c(n3)NC(=O)C(C)(C)O4)n2)cc(OC)c1OC [Tamatinib] (partner dose 0.4 µM),120
13,Cn1sc(=O)n(Cc2ccccc2)c1=O + CCc1ccc(CCOc2ccc(CC3SC(=O)NC3=O)cc2)nc1 [pioglitazone] (partner dose 2 µM),92
14,Cn1sc(=O)n(Cc2ccccc2)c1=O + O=C(O)C(=O)Nc1sc2c(c1C(=O)O)CCNC2 [TCS401] (partner dose 1.66667 µM),99
15,CCCCCCCCCCCCCCCCCCOP(=O)([O-])OC1CC[N+](C)(C)CC1 [Perifosine] + O=S(=O)(c1ccccc1)N(CC(F)(F)F)c1ccc(C(O)(C(F)(F)F)C(F)(F)F)cc1 [T0901317] (partner dose 1.4 µM),73.2
16,CCCCCCCCCCCCCCCCCCOP(=O)([O-])OC1CC[N+](C)(C)CC1 [Perifosine] + N#Cc1c(O)c2c(-c3ccc(-c4ccccc4O)cc3)csc2[nH]c1=O [A769662] (partner dose 2 µM),77.1
17,C[C@@H](N)c1ccc(C(=O)Nc2ccnc3[nH]ccc23)cc1 + C[C@@H]1CCN(C(=O)CC#N)C[C@@H]1N(C)c1ncnc2[nH]ccc12 [CP690550] (partner dose 1 µM),121
18,Cn1sc(=O)n(Cc2ccccc2)c1=O + Oc1nc(-c2ccc(C(F)(F)F)cc2)nc2c1CSCC2 [XAV939] (partner dose 2 µM),105
19,CCCCCCCCCCCCCCCCCCOP(=O)([O-])OC1CC[N+](C)(C)CC1 [Perifosine] + CC(C)CCN1c2nc(Nc3cc(F)c(O)c(F)c3)ncc2N(C)C(=O)C1C [BID1870] (partner dose 0.2 µM),84.5
20,Cn1sc(=O)n(Cc2ccccc2)c1=O + COc1cc2ncnc(Nc3ccc(Oc4ccccc4)cc3)c2cc1OC [SrcI1] (partner dose 2 µM),102
21,Cn1sc(=O)n(Cc2ccccc2)c1=O + COC(=O)c1sccc1S(=O)(=O)Nc1ccc(Nc2ccccc2)cc1OC [GSK0660] (partner dose 1 µM),97
22,Cn1sc(=O)n(Cc2ccccc2)c1=O + CC1(C)NC(=O)N(c2ccc([N+](=O)[O-])c(C(F)(F)F)c2)C1=O [nilutamide] (partner dose 1 µM),103
23,Cn1sc(=O)n(Cc2ccccc2)c1=O + COc1ccc(COc2ccc(Cc3cnc(N)nc3N)cc2OC)cc1 [GW2580] (partner dose 1 µM),104
24,C[C@@H](N)c1ccc(C(=O)Nc2ccnc3[nH]ccc23)cc1 + CCCCCCCCCCCC1=C(O)C(=O)C=C(O)C1=O [Embelin] (partner dose 1.2 µM),80
